# Measurements: the supplement of paper PMC9135407
# Several values for one entry are separate records, joined by “and”; a condition that tells them apart may be missing. Equal values may be shown once. Where a name gives a salt, the structure may show the parent alone. In all, about 5,800 compounds went through this assay and about 620 (11%) showed activity.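 How the source made its calls: active = score above a cut-off or among the top three wells of a plate; in these data no inactive exceeds 0.85.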 The entries are a selection whose mix differs from that of the whole data set.
# Tested on: primary human hepatic stellate cells (donor 1)
# Assay: scaled lipid accumulation score (0 = DMSO-like, 1 = nortriptyline-like); higher = stronger HSC inactivation (lipid re-accumulation), active = hit call of the paper
# Details: 48 h
# [1] = library stock concentration: 3.33 mM
# [2] = library stock concentration: 10 mM
# [3] = library stock concentration: 1 mM
# [4] = library stock concentration: 7.7 mM
# [5] = library stock concentration: 9.7 mM
# [6] = library stock concentration: 7.2 mM
# [7] = library stock concentration: 6.9 mM
smiles,measurement,setting,value
OC(c1ccccc1)(c1ccccc1)C1CCNCC1 [Azacyclonol],scaled lipid accumulation score,,inactive: 0.603
same,scaled lipid accumulation score,[1],inactive: ≤ 0
same,scaled lipid accumulation score,[2],inactive: 0.393
CC(O)CN1CCN(CC(=O)[O-])CCN(CC(=O)[O-])CCN(CC(=O)[O-])CC1.[Gd+3] (configuration not stated),scaled lipid accumulation score,[2],inactive: ≤ 0
"COc1ccc(CC2c3cc(OC)c(OC)cc3CCN2C)cc1OC (racemic) [Laudanosine (R,S)]",scaled lipid accumulation score,,inactive: ≤ 0
Oc1ccc(Cl)cc1Cc1cc(Cl)ccc1O [Dichlorophene],scaled lipid accumulation score,[2],inactive: ≤ 0
CCCCC/C=C\C/C=C\C/C=C\C/C=C\CCCC(=O)NCC(=O)O [N-arachidonoylglycine],scaled lipid accumulation score,[3],inactive: ≤ -0.021
CCCCC/C=C\C/C=C\C/C=C\C/C=C\CCCC(=O)NCC(=O)O [Arachidonoyl Glycine],scaled lipid accumulation score,[3],inactive: 0.02
Cc1ccc2c(c1)C1(CCN(CCc3nc(-c4ccccc4)oc3C)CC1)OC(=O)N2,scaled lipid accumulation score,[2],inactive: 0.228
O=c1c2ccccc2[se]n1-c1ccccc1 [Ebselen],scaled lipid accumulation score,library stock concentration: 18.2 mM,active: 0.952
CCC1(C)CC(=O)NC(=O)C1 [Bemegride],scaled lipid accumulation score,,inactive: ≤ 0
same,scaled lipid accumulation score,[1],inactive: ≤ 0
same,scaled lipid accumulation score,[2],inactive: ≤ -0.001
C[C@@]12C(=O)OC(=O)[C@]1(C)[C@H]1CC[C@@H]2O1 [Cantharidin],scaled lipid accumulation score,,inactive: 0.374
same,scaled lipid accumulation score,[2],inactive: ≤ 0 and inactive: 0.706
same,scaled lipid accumulation score,library stock concentration: 25.5 mM,inactive: 0.288
COC(C)(C)CCC[C@H](C)C/C=C/C(C)=C/C(=O)OC(C)C [Methoprene (s)],scaled lipid accumulation score,[2],inactive: 0.104
CCCCC/C=C\C/C=C\C/C=C\C/C=C\CCCC(=O)NC1CC1 [Arachidonoyl Cyclopropylamide],scaled lipid accumulation score,[3],inactive: ≤ 0
CCCC(C)(COC(N)=O)COC(=O)NC(C)C (configuration not stated) [Carisoprodol],scaled lipid accumulation score,,inactive: 0.078
same,scaled lipid accumulation score,[4],inactive: ≤ -0.001
same,scaled lipid accumulation score,[2],inactive: ≤ 0
Cc1ccccc1-n1c(Cn2ncc3c(N)ncnc32)nc2cccc(C)c2c1=O,scaled lipid accumulation score,[1],inactive: ≤ 0
same,scaled lipid accumulation score,[2],inactive: ≤ 0
O=C1C=C2C(=CCOC2O)O1 (configuration not stated) [Patulin],scaled lipid accumulation score,[2],active: 1.21
C/C(O)=C(\C#N)C(=O)Nc1cc(Br)ccc1Br,scaled lipid accumulation score,[2],inactive: ≤ 0
CNCCCCCCN(C)N(O)N=O,scaled lipid accumulation score,[3],inactive: 0.005
C[C@H]1CNCCc2ccc(Cl)cc21 [Lorcaserin HCl],scaled lipid accumulation score,[1],inactive: 0.087
same,scaled lipid accumulation score,[2],inactive: 0.501
FC(F)(F)c1cccc(N2CCNCC2)c1,scaled lipid accumulation score,[2],inactive: 0.39
C=C1C[C@@H]2[C@H](CC[C@]3(C)C(=O)CC[C@@H]23)[C@@]2(C)C=CC(=O)C=C12,scaled lipid accumulation score,[2],inactive: 0.378
C=C1C[C@@H]2[C@H](CC[C@]3(C)C(=O)CC[C@@H]23)[C@@]2(C)C=CC(=O)C=C12 [Exemestane],scaled lipid accumulation score,[1],inactive: ≤ 0
same,scaled lipid accumulation score,library stock concentration: 6.7 mM,inactive: 0.074
same,scaled lipid accumulation score,[2],inactive: ≤ 0
COc1ccccc1N1CCNCC1 [1-(2-Methoxyphenyl)piperazine hydrochloride],scaled lipid accumulation score,[2],inactive: ≤ 0
CC(=O)[C@H]1CC[C@H]2[C@@H]3CC[C@H]4C[C@H](O)CC[C@]4(C)[C@H]3C(=O)C[C@]12C [Alfaxalone],scaled lipid accumulation score,,inactive: ≤ 0
"CC(=O)[C@H]1CC[C@H]2[C@@H]3CC[C@H]4C[C@H](O)CC[C@]4(C)[C@H]3C(=O)C[C@]12C [5alpha-Pregnan-3alpha-ol-11,20-dione]",scaled lipid accumulation score,[2],inactive: ≤ -0.055
CC(=O)c1c(O)c(C)c(O)c(Cc2c(O)c3c(c(C(=O)/C=C/c4ccccc4)c2O)OC(C)(C)C=C3)c1O [Rottlerin],scaled lipid accumulation score,[5],inactive: 0.015
same,scaled lipid accumulation score,[2],inactive: 0.006
CCN(CC)CCO[C@H]1CC[C@@]2(C)C(=CC[C@@H]3[C@@H]2CC[C@]2(C)C(=O)CC[C@@H]32)C1.Cl,scaled lipid accumulation score,[2],active: 1.39
CCCCCCC(=O)O[C@H]1CC[C@H]2[C@@H]3CC(=O)C4=CC(=O)CC[C@]4(C)[C@H]3CC[C@]12C [6-keto Testosterone Enanthate],scaled lipid accumulation score,[3],inactive: 0.048
c1ccc2c(c1)Sc1ccccc1N2CC1CN2CCC1CC2 (configuration not stated),scaled lipid accumulation score,[2],active: 1.03
CCCCC/C=C\C/C=C\C/C=C\CCCCCCC(=O)NCCO [Dihomo-.gamma.-Linolenoyl Ethanolamide],scaled lipid accumulation score,[3],inactive: 0.003
CCOP(=S)(OCC)Oc1ccc2c(C)c(Cl)c(=O)oc2c1,scaled lipid accumulation score,[2],inactive: ≤ 0
Cn1c2c(c3ccccc31)CCNCC2,scaled lipid accumulation score,[2],inactive: 0.326
O=C1C=CC(=O)C=C1 [p-Benzoquinone],scaled lipid accumulation score,[2],inactive: 0.052
CN(C)[C@@H]1C(=O)C(C(N)=O)=C(O)[C@@]2(O)C(=O)C3=C(O)c4c(O)cccc4[C@@](C)(O)[C@H]3[C@H](O)[C@@H]12 [Oxytetracycline (Terramycin)],scaled lipid accumulation score,[1],inactive: ≤ 0
same,scaled lipid accumulation score,[2],inactive: ≤ 0
CN1C(=O)CCS(=O)(=O)C1c1ccc(Cl)cc1 (configuration not stated) [Chlormezanone],scaled lipid accumulation score,,inactive: ≤ 0
same,scaled lipid accumulation score,[1],inactive: ≤ 0
same,scaled lipid accumulation score,[2],inactive: ≤ 0 and inactive: 0.012
CO[C@@H]1C=C2CCN(C)[C@@H]2C2c3cc4c(cc3C(=O)OC21)OCO4 (some centres not stated) [Ungerine nitrate],scaled lipid accumulation score,,inactive: ≤ 0
O=P1(N(CCCl)CCCl)NCCCO1 (configuration not stated) [Cyclophosphamide hydrate],scaled lipid accumulation score,[6],inactive: 0.021
same,scaled lipid accumulation score,[2],inactive: ≤ 0
O=P1(N(CCCl)CCCl)NCCCO1 (configuration not stated) [Cytoxan],scaled lipid accumulation score,[2],inactive: ≤ 0
O=P1(N(CCCl)CCCl)NCCCO1 (configuration not stated) [Cyclophosphamide monohydrate],scaled lipid accumulation score,[4],inactive: ≤ 0
same,scaled lipid accumulation score,[2],inactive: ≤ 0
CCCN[C@@H]1CCc2c(OC)cccc2[C@@H]1C [(+)-AJ 76 hydrochloride],scaled lipid accumulation score,[2],inactive: 0.202
c1ccc2c(c1)sc1ccccc12 [Dibenzothiophene],scaled lipid accumulation score,[1],inactive: ≤ 0
same,scaled lipid accumulation score,[2],inactive: ≤ -0.001 and inactive: ≤ 0
same,scaled lipid accumulation score,library stock concentration: 10.9 mM,inactive: ≤ -0.001
CCCCC/C=C\C/C=C\C/C=C\C/C=C\CCCC(=O)NCCCC(=O)O [N-Arachidonoyl-.gamma.-Aminobutyric Acid],scaled lipid accumulation score,[3],inactive: 0.032
CCCn1c(C)c(C(=O)c2cccc3ccccc23)c2ccccc21,scaled lipid accumulation score,[3],inactive: ≤ 0
CCCCCCC(=O)O[C@H]1CC[C@H]2[C@@H]3C=CC4=CC(=O)CC[C@]4(C)[C@H]3CC[C@]12C [.DELTA.6-Testosterone Enanthate],scaled lipid accumulation score,[3],inactive: ≤ 0
CNC(=O)Oc1ccccc1OC(C)C,scaled lipid accumulation score,[2],inactive: 0.046
O=C(O)Cc1cnc[nH]1 [Imidazole-4-acetic acid hydrochloride],scaled lipid accumulation score,[2],inactive: ≤ -0.07
CC(=O)NC1CCSC1=O (configuration not stated) [Citiolone],scaled lipid accumulation score,[2],inactive: ≤ -0.027
O=C(O)[C@@H]1CCN1 [L-azetidine-2-carboxylic acid],scaled lipid accumulation score,[2],inactive: 0.097
c1ccc(/N=N/c2ccccc2)cc1 [Azobenzene],scaled lipid accumulation score,[2],inactive: ≤ 0
CCCCCCCCCCCCCCCC[n+]1ccccc1 [Cetylpyridinium Chloride],scaled lipid accumulation score,[1],inactive: ≤ 0
same,scaled lipid accumulation score,[2],inactive: 0.277
CCCCCCCCCCCCCCCC[n+]1ccccc1 [Cetylpyridinium chloride],scaled lipid accumulation score,library stock concentration: 5.9 mM,inactive: 0.13
same,scaled lipid accumulation score,[2],inactive: 0.654
C=CCC1(C(C)CCC)C(=O)NC(=S)NC1=O (configuration not stated) [Thiamylal sodium],scaled lipid accumulation score,[6],inactive: 0.022
c1ccc2c3c([nH]c2c1)CNCC3,scaled lipid accumulation score,[2],inactive: 0.806
Fc1cc(F)c2c(c1)[C@H]1C=CC[C@@H]1C(c1cccnc1)N2 (some centres not stated) [Golgicide A],scaled lipid accumulation score,[1],active: 0.872
same,scaled lipid accumulation score,[2],active: 1.03
COc1ccc(CCN2CCC(Nc3nc4ccccc4n3Cc3ccc(F)cc3)CC2)cc1 [Astemizole],scaled lipid accumulation score,,active: 1
Cc1ccc(-n2nccn2)c(C(=O)N2CCN(c3nc4cc(Cl)ccc4o3)CC[C@H]2C)c1 [Suvorexant (MK-4305)],scaled lipid accumulation score,[1],inactive: ≤ -0.009
same,scaled lipid accumulation score,[2],inactive: ≤ 0
"COc1ccc2c(c1OC)C(=O)O[C@H]2[C@@H]1c2cc3c(cc2CCN1C)OCO3 [1s,9r-hydrastine]",scaled lipid accumulation score,[2],inactive: ≤ 0
CCCN1CCO[C@@H]2c3cc(O)ccc3OC[C@H]21,scaled lipid accumulation score,[1],inactive: ≤ 0
same,scaled lipid accumulation score,[2],inactive: 0.074 and inactive: ≤ -0.006
"CCCN1CCO[C@@H]2c3cc(O)ccc3OC[C@H]21 [(?)-PD 128,907 hydrochloride]",scaled lipid accumulation score,[2],inactive: ≤ 0
CCOP(=S)(OCC)Oc1nc(Cl)c(Cl)cc1Cl,scaled lipid accumulation score,[2],inactive: ≤ 0
CCCCCCC(=O)CCCCCC/C=C/C[C@@H](O)[C@H](O)[C@@](N)(CO)C(=O)O [Myriocin],scaled lipid accumulation score,[3],inactive: 0.023
Oc1cc(Cl)ccc1Oc1ccc(Cl)cc1Cl [Triclosan],scaled lipid accumulation score,[7],inactive: 0.456
same,scaled lipid accumulation score,[2],inactive: 0.163
CC1(C)C(C=C(Cl)Cl)C1C(=O)OC(C#N)c1cccc(Oc2ccccc2)c1 (configuration not stated) [Cypermethrin],scaled lipid accumulation score,library stock concentration: 12 mM,inactive: 0.455
CC1(C)C(C=C(Cl)Cl)C1C(=O)OC(C#N)c1cccc(Oc2ccccc2)c1 (configuration not stated),scaled lipid accumulation score,[2],inactive: 0.476
CC(C)n1cnc2c(C(=O)N[C@H]3CN4CCC3CC4)cc(Cl)cc21,scaled lipid accumulation score,[2],inactive: 0.464
c1cncc([C@@H]2CCCN2)c1 [Nornicotine],scaled lipid accumulation score,[2],inactive: ≤ 0
COC(=O)/C=C/C(=O)N[C@@H]1CC[C@@]2(O)[C@H]3Cc4ccc(O)c5c4[C@@]2(CCN3CC2CC2)[C@H]1O5,scaled lipid accumulation score,[2],inactive: 0.325
O=C1CCCN1CC#CCN1CCCC1 [Oxotremorine sesquifumarate],scaled lipid accumulation score,[5],inactive: ≤ -0.006
same,scaled lipid accumulation score,[2],inactive: 0.028 and inactive: ≤ 0
O=C1CCCN1CC#CCN1CCCC1 [Oxotremorine sesquifumarate salt],scaled lipid accumulation score,[2],inactive: 0.02
CCCCC/C=C\C/C=C\C/C=C\C/C=C\CCCC(=O)N[C@H](C)COP(=O)(O)O [R-1 Methanandamide Phosphate],scaled lipid accumulation score,[3],inactive: ≤ 0
CO[C@@H]1C[C@@H](C[C@H]2CC[C@H](C)[C@H]([C@@H](C)C(=O)O)O2)O[C@]2(O[C@](C)([C@H]3CC[C@@](C)([C@@H]4O[C@@H]([C@H]5O[C@@](O)(CO)[C@H](C)C[C@@H]5C)C[C@@H]4C)O3)C[C@H]2C)[C@@H]1C [Nigericin],scaled lipid accumulation score,[7],inactive: 0.535
